{"source": "PubChem BioAssay AID504466", "about": "(National Center for Advancing Translational Sciences (NCATS), 2011)", "note": "Out of some 330,000 compounds screened, about 4,200 (1.3%) were called active. The inconclusive results got no clear call from the source; some entries with a clear call stand among them for comparison. Calls come from the whole dose curve; as a rule, active = well fitted activation curve with a large enough effect; inconclusive = small, poorly fitted or top-dose-only effect; inactive = no such curve, though single readings can be large or run the other way. Potencies beside an inconclusive call are fits to weak or partial responses and may not hold up. Potency is the fitted concentration of half-maximal effect; tags give direction and shape of the fitted curve.", "data": [{"test": "qHTS screen for small molecules that induce genotoxicity in human embryonic kidney (HEK293T) cells expressing luciferase-tagged ELG1; note: nearly all actives have a fitted effect of over 60% in size; for activity change, positive = activation: % of control where 0% means no effect", "details": "HEK293T ELG1-luciferase reporter, luminescence, 16 h; series mostly up to 46 µM; activity change, positive = activation: at the top concentration", "in_short": "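Genotoxicity was scored as increased ELG1-luciferase reporter signal, measured by ONE-Glo luminescence (30 min, room temperature). Compound or vehicle exposure of the HEK293T reporter cells lasted 16 hr at 37°C.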", "values": [{"smiles": "COc1cc2[nH]c3c(=O)n(N)c(=O)[nH]c3c2cc1OC", "activity change, positive = activation": "inactive: 1.54%"}, {"smiles": "COc1ccc2oc(C(=O)NCC3CCCO3)c(C)c2c1", "note": "(centres undefined)", "Potency": "inconclusive: 18.3 µM [activator, single point]"}, {"smiles": "Cc1ccc(C2NC(=O)c3c(sc(C)c3C)N2)c(O)c1", "note": "(centres undefined)", "Potency": "inconclusive: 18.4 µM [activator, single point]"}, {"smiles": "CCN(Cc1ccccc1)C(=O)COc1ccccc1", "activity change, positive = activation": "inactive: 1.01%"}, {"smiles": "Clc1ccc(-n2nnc(-c3cccnc3Cl)n2)cn1", "Potency": "inconclusive: 20.6 µM [activator, partial curve]"}, {"smiles": "COc1cc(/C=N/Nc2nc3ccccc3[nH]2)ccc1O", "Potency": "inconclusive: 20.6 µM [activator, partial curve, poor fit]"}, {"smiles": "O=C(Nc1ccc(COc2ccccc2)cc1)c1cccc([N+](=O)[O-])c1", "Potency": "inconclusive: 16.4 µM [activator, partial curve, poor fit]"}, {"smiles": "C=CCn1c(C)nc2c(sc3nc4c(cc32)COC(C)(C)C4)c1=O", "Potency": "inconclusive: 2.31 µM [activator, full curve]"}, {"smiles": "CCOc1ccc(C(=O)/C=C/Nc2ccc(S(=O)(=O)Nc3onc(C)c3C)cc2)cc1", "Potency": "inconclusive: 20.6 µM [activator, partial curve, poor fit]"}, {"smiles": "CC(Cc1cccs1)NC(=O)Nc1ccc(Cl)cc1", "note": "(centres undefined)", "Potency": "active: 5.62 µM"}, {"smiles": "Cc1ccc(N=Nc2c(O)n(CN3CCOCC3)c3ccccc23)cc1", "Potency": "active: 3.66 µM"}, {"smiles": "CC1=C(C(=O)OCC2CCCO2)C(c2ccccc2)C2=C(CC(C)(C)CC2=O)N1", "note": "(centres undefined)", "Potency": "inconclusive: 5.17 µM [activator, partial curve, poor fit]"}, {"smiles": "COc1ccccc1Nc1nc2ccccc2n2cnnc12", "activity change, positive = activation": "inactive: -1.33%"}, {"smiles": "CCOC(=S)SCC(=O)Nc1nccs1", "Potency": "inconclusive: 32.6 µM [activator, partial curve, poor fit]"}, {"smiles": "Cc1ccc(C(=O)c2sc3nsc(C)c3c2N)cc1", "Potency": "active: 0.58 µM"}, {"smiles": "O=C(Nc1ccc(F)cc1)N1CCOCC1", "activity change, positive = activation": "inactive: 3.47%"}, {"smiles": "COc1cc(/C=C/C(=O)N2CCCN(C(=O)/C=C/c3cc(OC)c(OC)c(OC)c3)CC2)cc(OC)c1OC", "activity change, positive = activation": "inactive: 13.4%"}, {"smiles": "Cc1ccc(N/N=C(\\C#N)C(=N)N2CCCCC2)cc1", "Potency": "inconclusive: 3.66 µM [activator, partial curve]"}, {"smiles": "COc1ccccc1-c1nnc(SCc2nc3ccccc3s2)n1C", "activity change, positive = activation": "inactive: 4.07%"}, {"smiles": "C=CC[C@H](CC(=O)OC(C)(C)C)C(=O)OC[C@H]1CCCN1C(=O)[C@H](CC=C)CC(=O)NCCO", "activity change, positive = activation": "inactive: 1.26%"}, {"smiles": "C=CCNC(=O)C1CC(=O)N(c2ccc(OCC(=O)Nc3ccccc3)cc2)C1", "note": "(centres undefined)", "Potency": "inconclusive: 10.3 µM [activator, partial curve, poor fit]"}, {"smiles": "C=CCn1c(SCC(C)=O)nc2scc(-c3ccc(C)o3)c2c1=O", "Potency": "inconclusive: 3.16 µM [activator, single point]"}, {"smiles": "COc1cccc(NC(=O)c2ccccc2Br)c1", "Potency": "inconclusive: 20.6 µM [activator, single point]"}, {"smiles": "O=C(Nc1ccc2ccccc2n1)C1CCCCC1", "Potency": "inconclusive: 2.06 µM [activator, full curve]"}, {"smiles": "CCOc1ccc(OCCSc2nc3ccccc3c(=O)[nH]2)cc1", "Potency": "inconclusive: 23.1 µM [activator, partial curve, poor fit]"}, {"smiles": "COCCn1c(SCC(=O)Nc2ccc(C(C)=O)cc2)nc2c([nH]c3ccccc32)c1=O", "Potency": "inconclusive: 20.6 µM [activator, single point]"}, {"smiles": "COc1cc(OC)cc(C(=O)Nc2cccc(-c3ccc(N4CCOCC4)nn3)c2)c1", "Potency": "inconclusive: 5.17 µM [activator, partial curve, poor fit]"}, {"smiles": "Cn1ccnc1SCC(=O)N1CCc2ccccc21", "Potency": "inconclusive: 5.17 µM [activator, single point]"}, {"smiles": "S=C(NCCc1cccc(Cl)c1)NC1CCCCC1", "Potency": "inconclusive: 9.2 µM [activator, partial curve]"}, {"smiles": "C=CCN1c2ccccc2[C@]23C[C@@H](C(=O)OC)N(C(C)=O)C2=NC(C(=O)OC)=C(C(=O)OC)[C@H]13", "activity change, positive = activation": "inactive: 5.24%"}, {"smiles": "COc1ccc(-c2nc(O)c3cnccn23)cc1", "activity change, positive = activation": "inactive: -0.929%"}, {"smiles": "Cc1cc(C)nc(N/N=C/c2cc(Br)ccc2O)n1", "Potency": "inconclusive: 20.6 µM [activator, single point]"}, {"smiles": "O=C(O)c1ccc(N2C(=O)CC(SC(=Nc3ccccc3)Nc3ccccc3)C2=O)cc1", "note": "(centres undefined)", "activity change, positive = activation": "inactive: -0.642%"}, {"smiles": "O=C(c1ccc2c(c1)OCCCO2)c1cccs1", "Potency": "inconclusive: 2.91 µM [activator, full curve]"}, {"smiles": "Cc1nc(NC2CCCC2)sc1C(=O)N(C)C", "Potency": "inconclusive: 18.4 µM [activator, single point]"}, {"smiles": "CCCCC(=O)Nc1sc2c(c1C#N)CC(C)(C)OC2", "Potency": "inconclusive: 8.2 µM [activator, partial curve, poor fit]"}, {"smiles": "O=C(OCc1ccccn1)c1ccc(COc2ccc3ccccc3c2)o1", "Potency": "inconclusive: 4.11 µM [activator, partial curve, poor fit]"}, {"smiles": "COc1ccc(-c2csc3ncnc(N4CCN(c5ccccc5Cl)CC4)c23)cc1", "activity change, positive = activation": "inactive: -20.4%"}, {"smiles": "Cc1ccc2nc(NCc3ccccc3)[nH]c2c1", "Potency": "active: 11.2 µM"}, {"smiles": "COc1ccc(C(=O)Nc2cccc(/C(C)=N\\NC(=O)c3ccoc3C)c2)cc1OC", "activity change, positive = activation": "inactive: -10.9%"}, {"smiles": "O=C(NC1CCCCCCC1)c1ccc(F)cc1", "Potency": "active: 10.3 µM"}, {"smiles": "Cc1cc(C=C2C(=O)c3ccccc3C2=O)c(C)n1C", "Potency": "inconclusive: 11.6 µM [activator, partial curve]"}, {"smiles": "CCCOP(=O)(OCCC)c1nc(-c2ccccc2)oc1NCc1ccccc1", "activity change, positive = activation": "inactive: -2.72%"}, {"smiles": "CC(=O)c1ccc(N=Nc2ccc(N)cc2)cc1", "Potency": "inconclusive: 0.517 µM [activator, full curve]"}, {"smiles": "Cc1cccc(NC(=O)c2cnn(-c3ccccc3)c2C)c1C", "Potency": "inconclusive: 13 µM [activator, partial curve]"}, {"smiles": "CN(CC(=O)Nc1ccccc1C(F)(F)F)C(=O)c1cccc(-n2cccc2)c1", "activity change, positive = activation": "inactive: 0.512%"}, {"smiles": "CC(=O)c1ccc(NC(=O)Nc2cccnc2)cc1", "Potency": "active: 20.6 µM"}, {"smiles": "CC(=O)c1cnc2c(-c3ccccc3)cnn2c1C", "Potency": "inconclusive: 20.6 µM [activator, partial curve, poor fit]"}, {"smiles": "COc1ccc(C(=O)OCC(=O)Nc2cccc(C(C)=O)c2)cc1OC", "activity change, positive = activation": "inactive: -2.98%"}, {"smiles": "CN(C)c1cccc(NC(=O)c2ccco2)c1", "activity change, positive = activation": "inactive: 6.44%"}, {"smiles": "O=C(Nc1ccccc1F)Nc1ccccc1F", "activity change, positive = activation": "inactive: 25.8%"}, {"smiles": "CCCCc1cc(O)c(CCCC)c(O)c1", "Potency": "inconclusive: 16.4 µM [activator, partial curve, poor fit]"}, {"smiles": "CCn1c(=O)cc(OCC(=O)NC2CCCCC2)c2ccccc21", "Potency": "inconclusive: 18.4 µM [activator, single point]"}, {"smiles": "O=C(NCC(=O)N1CCCCC1)c1ccc(Cl)cc1Cl", "Potency": "active: 16.4 µM"}, {"smiles": "COc1ccccc1-c1ccc(Nc2cccc(C(C)=O)c2)nn1", "Potency": "inconclusive: 16.4 µM [activator, single point]"}, {"smiles": "O=[N+]([O-])c1ccc(COc2cccc3cccnc23)cc1", "Potency": "inconclusive: 18.3 µM [activator, partial curve, poor fit]"}, {"smiles": "COc1ccc2sc(NC(C)=O)nc2c1", "Potency": "active: 9.2 µM"}, {"smiles": "O=[N+]([O-])c1cccc(/C=N/Nc2nccnc2Cl)c1", "Potency": "inconclusive: 29.1 µM [activator, partial curve, poor fit]"}, {"smiles": "O=C(COc1ccc(Cl)cc1)Nc1ccccc1CO", "Potency": "inconclusive: 11.6 µM [activator, partial curve, poor fit]"}, {"smiles": "COc1cc(C(=O)Nc2ccc3c(c2)Cc2ccccc2-3)cc(OC)c1OC", "Potency": "inconclusive: 29.1 µM [activator, partial curve, poor fit]"}, {"smiles": "CCc1nc2oc3ccccc3c(=O)c2c(=O)n1-c1ccc(C)cc1", "Potency": "inconclusive: 5.17 µM [activator, partial curve]"}, {"smiles": "Oc1ccccc1/C=N/NC(=S)NC1CC2C=CC1C2", "note": "(centres undefined)", "Potency": "inconclusive: 11.6 µM [activator, partial curve, poor fit]"}, {"smiles": "Cc1cccc(Oc2ccc3c(c2)cc(C(=O)O)n3C)c1", "activity change, positive = activation": "inactive: -4.93%"}, {"smiles": "Cc1ccc(OCC(=O)Nc2cccc(O)c2)cc1C", "Potency": "inconclusive: 5.17 µM [activator, full curve, poor fit]"}, {"smiles": "CC1CCC(NC(=O)CCNS(=O)(=O)c2ccccc2)CC1", "note": "(centres undefined)", "Potency": "inconclusive: 23.1 µM [activator, partial curve, poor fit]"}, {"smiles": "Cc1cc([N+](=O)[O-])ccc1N1C(=O)c2ccc(C(=O)Nc3ccccc3C(=O)O)cc2C1=O", "activity change, positive = activation": "inactive: -1.14%"}, {"smiles": "Cc1[nH]n(-c2ccccc2)c(=O)c1/C=N/NC(=O)c1ccc(O)cc1O", "Potency": "inconclusive: 20.6 µM [activator, partial curve, poor fit]"}, {"smiles": "O=C(CSc1nc(-c2ccccc2)ns1)N1CCOCC1", "Potency": "active: 23.1 µM"}, {"smiles": "CC(=O)c1ccc(Nc2nc(C)cc(C)n2)cc1", "Potency": "inconclusive: 23.1 µM [activator, single point]"}, {"smiles": "COc1ccccc1-c1noc(-c2cccnc2)n1", "Potency": "active: 20.6 µM"}, {"smiles": "O=C(N/N=C/c1cccc(Br)c1)c1ccc(Br)cc1", "Potency": "inconclusive: 23.1 µM [activator, partial curve, poor fit]"}, {"smiles": "COC(=O)C1CC23C=CCN4CCC5(c6ccccc6NC15C2C)C43", "note": "(centres undefined)", "Potency": "inconclusive: 7.3 µM [activator, partial curve, poor fit]"}, {"smiles": "COC(=O)N1N=C(c2ccc(Br)cc2)CC1(O)C(F)(F)F", "note": "(centres undefined)", "Potency": "inconclusive: 11.6 µM [activator, partial curve]"}, {"smiles": "Nc1c(C(=O)Nc2ccccc2Cl)nnn1-c1ccc2c(c1)OCCO2", "Potency": "inconclusive: 1.46 µM [activator, full curve]"}]}]}
